The densities may have been worked out from excess volumes.
Test: xn = mol fraction of the nth substance listed
Details: 100 kPa

COS(=O)(=O)[O-].Cn1cc[n+](C)c1 + CO
mass density [kg/m3]
Details	x2 = 0.1212	x2 = 0.2015	x2 = 0.322	x2 = 0.4001	x2 = 0.5642	x2 = 0.6513	x2 = 0.7745	x2 = 0.8744	x2 = 0.9405
313.15 K	1306.7	1293.3	1272.4	1259.6	–	–	1099.7	995.7	897.4
318.15 K	1303	1289.6	–	1256.2	1211	1173.6	–	991.3	892.8
323.15 K	1298.6	1286.2	1265.8	1253.3	1207.3	–	1094.4	987.1	888.5
328.15 K	1295.2	–	1261.6	–	1203.7	1166.8	1091	982.9	–
333.15 K	1292	1279	–	1244.8	1200.1	–	1087.3	–	879.4

From a compilation of properties of binary mixtures (doi:10.1021/je700188w)
